Hit rate of the full screen: of about 48,000 compounds, about 450 (0.94%) were called active. Inconclusive results (about 19%) are left out. Calls come from the whole dose curve; as a rule, active = well fitted inhibition curve with a large enough effect; inconclusive = small, poorly fitted or top-dose-only effect; inactive = no such curve, though single readings can be large or run the other way. Some of the results follow.
Assay: Primary qHTS for Identification of Small Molecule Inhibitors of Huntingtin Promoter Activity; note: nearly all actives have a fitted effect of over 50% in size
Settings: HEK293 HTT promoter firefly luciferase reporter (activity 0% = vehicle and -100% = no light), 24 h; series mostly up to 57.5 µM; activity change, negative = inhibition: at the top concentration
Outline: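 HEK293 Fluc reporter, 2,500 cells/well, 24 h pre-culture; cpds up to 57.5 uM final, 24 h 37 degrees C; Dual-Glo, 10 min RT; normalized vehicle = 0%, zero RLU = -100%.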

Activity change, negative = inhibition, inactive:
CCOc1ccccc1NC(=O)c1cc2c(=O)oc3ccccc3c2s1 7.13%
Cc1ccc(/C=C/c2nc3ccccc3[nH]2)cc1 -68%
CCc1ccc(NC(=O)CCS(=O)(=O)c2ccc3c(c2)n(C)c(=O)c(=O)n3C)cc1 -14.9%
CCC(Cn1nnc2ccccc2c1=O)NC(=O)Nc1ccc(C)c(C)c1 (configuration not stated) -0.0854%
COCCCNC(=O)CSc1nc2cc(OC)c(OC)cc2c2nc(-c3ccccc3)nn12 0.879%
CS(=O)(=O)CCC(C(=O)Nc1cccc(C(F)(F)F)c1)N1Cc2ccccc2C1=O (configuration not stated) -24.5%
O=C(c1ccco1)c1cn(CCOc2ccc(F)cc2)c2ccccc12 -10.6%
Cc1ccc(OCc2nc3ccccc3n2CCOc2ccc(Cl)cc2)cc1 -22.2%
Cc1ccc(-c2nc(SCC(=O)NCc3ccco3)c3c(=O)n(C)c(=O)n(C)c3n2)cc1 -2.65%
CC(C)c1ccc(NC(=O)Cn2c(=O)n(CCc3ccccc3)c(=O)c3ccccc32)cc1 -6.31%
CCc1cccc(CC)c1NC(=O)CN1C(=O)C(=O)c2ccccc21 -11%
Cc1c(Cn2ccnc2)c2ccccc2n1CCC(=O)O 8.75%
Cc1ccc(NC(=O)CC(C)S(=O)(=O)c2ccc3c(c2)NC(=O)CO3)cc1Cl (configuration not stated) 6.67%
CCc1ccc(NC(=O)C(CC)n2c(=O)c(C(F)(F)F)nc3ccccc32)cc1 (configuration not stated) -9.08%
Cc1nc2nc(SCC(=O)NCc3ccccc3Cl)nn2c(C)c1Cc1ccccc1 -28%
CCc1nc(-c2cc(S(=O)(=O)N3CCN(c4ccccc4OC)CC3)ccc2OC)no1 -21.1%
COc1cc(Cl)c(C)cc1Nc1ncnc2c1nc1n2CCCC1 12.5%
CCOC(=O)Cn1c(=O)c2c(nc3n2CCN3c2ccc(CC)cc2)n(C)c1=O -2.62%
COc1ccc(Cl)cc1NC(=O)CN1C(=O)COc2ccc(S(=O)(=O)NC3CCCC3)cc21 -0.975%
Cc1ccc(Nc2nn3c(=O)c4cc5c(cc4nc3s2)OCO5)cc1Cl -6.48%
CCCCN(CC)CCNC(=O)Cn1cc2c(n1)-c1c(oc(C(=O)N3CCCC3)c1C)CC2 -0.553%
CN(C(=O)CSc1cn(CC(=O)N2CCOCC2)c2ccccc12)c1ccccc1 9.74%
CC(=O)N1CCCc2cc(S(=O)(=O)N3CCC(C(=O)NCc4cccc(C)c4)CC3)ccc21 -25.6%
COc1cccc(Cn2c(=O)n(Cc3ccco3)c(=O)c3oc4ccccc4c32)c1 -1.05%
CCCOc1cccc(C(=O)N(Cc2ccc(C)o2)C2CCS(=O)(=O)C2)c1 (configuration not stated) -16.1%
CC(=O)Nc1ccc(NC(=O)CSc2nccn2C)cc1 -16.4%
COCCNc1sc(S(=O)(=O)c2ccc(C)cc2)nc1S(=O)(=O)c1ccc(C)cc1 -4.74%
